T1: RBFOX1 RRM (Homo sapiens, UniProt Q9NWB1 109-208)
T1 sequence: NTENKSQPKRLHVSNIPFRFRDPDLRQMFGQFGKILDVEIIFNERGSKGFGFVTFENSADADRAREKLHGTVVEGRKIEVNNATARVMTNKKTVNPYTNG

B1: UAGAGGU (DNA:RNA)
RNA: GGGAGACCGGAAUUCAGAUUGUCCUAGAGGUUUAAAUCCCGUCGUAGCCACCA
DNA 1: CAATCTGAATTCCGGTCTCCC
DNA 2: TGGTGGCTACGACGGGATT
B2: CCGCGAU (DNA:RNA)
RNA: B1 RNA with U25C, A26C, A28C, G30A
DNA 1: CAATCTGAATTCCGGTCTCCC
DNA 2: TGGTGGCTACGACGGGATT
B3: UUUUCUA (DNA:RNA)
RNA: B1 RNA with A26U, G27U, A28U, G29C, G30U, U31A
DNA 1: CAATCTGAATTCCGGTCTCCC
DNA 2: TGGTGGCTACGACGGGATT
B4: GGUGUCG (DNA:RNA)
RNA: GGGAGACCGGAAUUCAGAUUGUCCGGUGUCGUUAAAUCCCGUCGUAGCCACCA
DNA 1: CAATCTGAATTCCGGTCTCCC
DNA 2: TGGTGGCTACGACGGGATT
B5: GGUAUGG (DNA:RNA)
RNA: B4 RNA with G28A, C30G
DNA 1: CAATCTGAATTCCGGTCTCCC
DNA 2: TGGTGGCTACGACGGGATT
B6: UGGAUAA (DNA:RNA)
RNA: B1 RNA with A26G, G29U, G30A, U31A
DNA 1: CAATCTGAATTCCGGTCTCCC
DNA 2: TGGTGGCTACGACGGGATT
B7: UUGCUAA (DNA:RNA)
RNA: B1 RNA with A26U, A28C, G29U, G30A, U31A
DNA 1: CAATCTGAATTCCGGTCTCCC
DNA 2: TGGTGGCTACGACGGGATT
B8: AGUGGGC (DNA:RNA)
RNA: B4 RNA with G25A, U29G, C30G, G31C
DNA 1: CAATCTGAATTCCGGTCTCCC
DNA 2: TGGTGGCTACGACGGGATT
B9: CGUAGCA (DNA:RNA)
RNA: B4 RNA with G25C, G28A, U29G, G31A
DNA 1: CAATCTGAATTCCGGTCTCCC
DNA 2: TGGTGGCTACGACGGGATT
B10: CAACUCU (DNA:RNA)
RNA: B4 RNA with G25C, G26A, U27A, G28C, G31U
DNA 1: CAATCTGAATTCCGGTCTCCC
DNA 2: TGGTGGCTACGACGGGATT
B11: AUGAAUC (DNA:RNA)
RNA: B1 RNA with U25A, A26U, G29A, G30U, U31C
DNA 1: CAATCTGAATTCCGGTCTCCC
DNA 2: TGGTGGCTACGACGGGATT
B12: AGCGUAA (DNA:RNA)
RNA: B4 RNA with G25A, U27C, C30A, G31A
DNA 1: CAATCTGAATTCCGGTCTCCC
DNA 2: TGGTGGCTACGACGGGATT
B13: GCUAGUG (DNA:RNA)
RNA: B4 RNA with G26C, G28A, U29G, C30U
DNA 1: CAATCTGAATTCCGGTCTCCC
DNA 2: TGGTGGCTACGACGGGATT
B14: UUCGAGC (DNA:RNA)
RNA: B1 RNA with A26U, G27C, A28G, G29A, U31C
DNA 1: CAATCTGAATTCCGGTCTCCC
DNA 2: TGGTGGCTACGACGGGATT
B15: GGUUCAG (DNA:RNA)
RNA: B4 RNA with G28U, U29C, C30A
DNA 1: CAATCTGAATTCCGGTCTCCC
DNA 2: TGGTGGCTACGACGGGATT
B16: GCCUAGG (DNA:RNA)
RNA: B4 RNA with G26C, U27C, G28U, U29A, C30G
DNA 1: CAATCTGAATTCCGGTCTCCC
DNA 2: TGGTGGCTACGACGGGATT
B17: UAAGAGU (DNA:RNA)
RNA: B1 RNA with G27A, A28G, G29A
DNA 1: CAATCTGAATTCCGGTCTCCC
DNA 2: TGGTGGCTACGACGGGATT
B18: GAGCUUG (DNA:RNA)
RNA: B4 RNA with G26A, U27G, G28C, C30U
DNA 1: CAATCTGAATTCCGGTCTCCC
DNA 2: TGGTGGCTACGACGGGATT
B19: AGAUCCG (DNA:RNA)
RNA: B4 RNA with G25A, U27A, G28U, U29C
DNA 1: CAATCTGAATTCCGGTCTCCC
DNA 2: TGGTGGCTACGACGGGATT
B20: UCAGGUG (DNA:RNA)
RNA: B4 RNA with G25U, G26C, U27A, U29G, C30U
DNA 1: CAATCTGAATTCCGGTCTCCC
DNA 2: TGGTGGCTACGACGGGATT

Where a chain is given by its changes, count along the chain named. The list shows a part of the results.

The assay addresses T1, RBFOX1 RRM. As to the kind of experiment: EMSA; HiTS-Eq, 1 nM pool, 10 min; buffer printed only for the single-RNA assays: 10 mM Tris pH 7.5, 150 mM NaCl, 3.4 mM EDTA, 0.001% NP-40, 30 C. The settings on record: tags: His6 N-terminal (pET28a); label: 5' 32P. A digest of the protocol:
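Purified RbFox RRM (wild type or mutant) was equilibrated for 10 min in 50 µL with 1 nM of a 5′-radiolabelled pool of RNA with 7 randomized nucleotides, its flanks annealed to DNA oligonucleotides, across increasing protein concentrations. Free RNA was separated by 8% native PAGE, excised, reverse-transcribed, PCR-barcoded and sequenced on an Illumina HiSeq 2500. Relative association constants came from read-count changes of each variant against the control reaction, normalised to the cognate motif.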
Consider B1, for which the binding signal is 0.00935 KA relative to UGCAUGU. To B2 belongs 0.006 KA relative to UGCAUGU. To B3 belongs 0.0102 KA relative to UGCAUGU; to B4, 0.0153 KA relative to UGCAUGU. As for B5, the figure is 0.00925 KA relative to UGCAUGU.

Consider B6, for which the binding signal was 0.0172 KA relative to UGCAUGU. To B7 belongs 0.00861 KA relative to UGCAUGU; to B8, 0.00917 KA relative to UGCAUGU; to B9, 0.016 KA relative to UGCAUGU. To B10 belongs 0.00316 KA relative to UGCAUGU; to B11, 0.00485 KA relative to UGCAUGU. As for B12, the figure is 0.00399 KA relative to UGCAUGU.

For the molecule B13, the binding signal was 0.0248 KA relative to UGCAUGU. To B14 belongs 0.0185 KA relative to UGCAUGU; to B15, 0.00719 KA relative to UGCAUGU; to B16, 0.0123 KA relative to UGCAUGU.

On to B17, for which the binding signal was 0.0123 KA relative to UGCAUGU. To B18 belongs 0.0295 KA relative to UGCAUGU; to B19, 0.00786 KA relative to UGCAUGU; to B20, 0.019 KA relative to UGCAUGU.

(Values after publication PMC9911399, “Two distinct binding modes provide the RNA-binding protein RbFox with extraordinary sequence specificity”.)
